# Experimental data published in the supplement of paper PMC4723716.
# ± gives the uncertainty stated by the source. The full ranking holds about 9,900 compounds; the median of “viability index relative to DMSO control” is about 1, and the lowest 2% start at about 0.85. The list shows a part of the results.
# System: Plasmodium falciparum NF54 stage V gametocytes
# Test: viability index relative to DMSO control (fraction); higher = less gametocyte killing
# Conditions: 2.5 µM, library set: Broad Institute DOS, incubation time: 72 h
# Outline: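 In 1,536-well plates, 10 µl of serum-free medium holding P. falciparum NF54 stage V gametocytes (0.75% gametocytemia, 1.25% hematocrit) received compound at 2.5 µM for 72 hr at 37°C in low oxygen. After one to two hours with 3 µl of 2.5 µM MitoTracker Red CMXRos containing 0.13% saponin, red particles of 20–70 µm2 were counted in a single field per well. Viability index is reported as the particle count over the plate mean of wells treated with solvent only.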
row,SMILES,viability index
1,CN(C[C@H]1[C@@H](c2ccccc2)[C@H](CO)N1Cc1ccccn1)S(C)(=O)=O,1.01 ± 0.012
2,CC(=O)N1[C@H](CO)[C@H](c2ccccc2)[C@H]1CN(CC(C)C)C(=O)c1ccccn1,1.05 ± 0.058
3,O=C(c1ccccc1)N1CC(=O)N2[C@H](C1)[C@H](c1ccc(-c3ccccc3)cc1)[C@@H]2CO,0.954 ± 0.029
4,C[C@H](NC(=O)C[C@@H]1CC[C@@H]2[C@H](COC[C@@H](O)CN2Cc2ccc(C(F)(F)F)cc2)O1)c1ccccc1,0.981 ± 0.064
5,C[C@@H]1CN([C@@H](C)CO)C(=O)c2cc(N(C)C)ccc2O[C@@H](C)CCCCO[C@H]1CN(C)S(=O)(=O)c1ccc(F)cc1,1.12 ± 0.11
6,CCCNC(=O)N1CC(=O)N2[C@H](CO)[C@@H](c3ccc(C#Cc4cccc(OC)c4)cc3)[C@@H]2C1,1.03 ± 0.025
7,O=C(CC1CC1)N1[C@@H](CO)[C@@H]2c3ccccc3N(S(=O)(=O)c3ccccc3F)C[C@@H]21,1.07 ± 0.061
8,COCC#Cc1ccc([C@@H]2[C@@H](CO)N3C(=O)CN(C(=O)CN4CCOCC4)C[C@H]23)cc1,1.052 ± 0.0074
9,C/C=C/c1ccc([C@H]2[C@H](CO)N3CCCCN(S(=O)(=O)c4ccc(OC)cc4)C[C@@H]23)cc1,1.02 ± 0.036
10,CC(C)NC(=O)N(C)C[C@@H]1Oc2c(NS(=O)(=O)c3cccs3)cccc2C(=O)N([C@H](C)CO)C[C@@H]1C,1.005 ± 0.0077
11,C[C@@H]1CN([C@@H](C)CO)C(=O)c2cc(NC(=O)CCCN(C)C)ccc2O[C@@H]1CN(C)Cc1ccc(Cl)c(Cl)c1,0.945 ± 0.062
12,C[C@@H]1CN([C@H](C)CO)C(=O)c2cc(NC(=O)Nc3cccc4ccccc34)ccc2O[C@H]1CN(C)S(=O)(=O)c1cccs1,1.007 ± 0.0072
13,CC(=O)NC[C@@H]1[C@@H](c2ccc(-c3cccnc3)cc2)[C@@H](CO)N1C(=O)CC1CC1,1.05 ± 0.09
14,CO[C@H]1CN(C)C(=O)c2ccc(NC(=O)c3cccc(F)c3)cc2OC[C@@H](C)NC[C@H]1C,1.08 ± 0.056
15,COc1ccc2c3c([nH]c2c1)[C@@H](CO)N(Cc1ccncc1)C[C@]31CN(C1)C(=O)CN(C)C,0.959 ± 0.036
16,COc1ccc2c3c([C@H](CO)N(Cc4nccs4)C[C@]33CCN(CC3)C(=O)CN(C)C)n(C)c2c1,0.955 ± 0.12
17,CO[C@H](CN(C)C(=O)C1CCOCC1)[C@H](C)CN([C@@H](C)CO)S(=O)(=O)c1ccccc1,1.1 ± 0.032
18,CCCNC(=O)Nc1ccc2c(c1)C(=O)N(C)C[C@H](OC)[C@@H](C)CN(C)[C@@H](C)CO2,0.987 ± 0.028
19,CCC(=O)N1[C@@H]2c3ccc(-c4ccccc4OC)c(=O)n3C[C@@H]2[C@@H](CO)[C@@H]1C(=O)NCCCN(C)C,1.08 ± 0.07
20,Cc1noc(C)c1S(=O)(=O)N(C)C[C@H]1OCc2cn(nn2)CCCC(=O)N([C@H](C)CO)C[C@H]1C,1.1 ± 0.039
21,O=C(c1cccnc1)N1CC2(C1)[C@H](c1ccccc1)[C@H](CO)N2Cc1ccc(Cl)cc1,1.101 ± 0.0023
22,C[C@H](CO)N1C[C@H](C)[C@H](CN(C)C(=O)CCCN(C)C)OCCCC[C@H](C)Oc2ccc(NS(=O)(=O)c3ccc(Cl)cc3)cc2C1=O,1.09 ± 0.12
23,C[C@H](CO)N1C[C@H](C)[C@@H](CN(C)Cc2cccnc2)OCc2ccccc2-c2ccccc2C1=O,1.01 ± 0.051

row,SMILES,viability index
1,C[C@@H]1CCn2cc(nn2)COC[C@H](Cc2ccccc2)NC1=O,0.981 ± 0.038
2,C[C@H](CO)N1C[C@H](C)[C@H](CN(C)Cc2cccnc2)OCc2ccccc2-c2ccccc2C1=O,0.995 ± 0.086
3,O=C(C1CCOCC1)N1CC(=O)N2[C@H](C1)[C@H](c1ccc(C#CC3CCCCC3)cc1)[C@@H]2CO,1.03 ± 0.018
4,COc1ccc(CN(C)C[C@H]2OCCCC[C@H](C)Oc3ccc(NC(=O)C4CCCCC4)cc3C(=O)N([C@H](C)CO)C[C@@H]2C)cc1,1.02 ± 0.012
5,CO[C@H]1CN(C)C(=O)c2ccc(NC(C)=O)cc2OC[C@@H](C)N(C(=O)c2cnccn2)C[C@H]1C,1 ± 0.018
6,COCC(=O)N1[C@H](CO)[C@H](c2ccccc2-c2cccc(C)c2)[C@@H]1C#N,1.06 ± 0.063
7,C[C@@H]1CN([C@H](C)CO)C(=O)CCCn2cc(nn2)CO[C@H]1CN(C)C(=O)CCC(F)(F)F,0.988 ± 0.084
8,COCC#Cc1ccc([C@@H]2[C@@H](CO)N3C(=O)CN(C(=O)C4CCCCC4)C[C@H]23)cc1,1.02 ± 0.034
9,O=C1CNC[C@@H]2[C@@H](c3ccc(-c4ccccc4F)cc3)[C@H](CO)N12,1.01 ± 0.058
10,O=C(CC1CC1)N1CC2(C1)[C@H](c1ccccc1)[C@@H](CO)N2Cc1ccccn1,1.07 ± 0.077
11,C[C@@H]1CN([C@H](C)CO)C(=O)c2ccccc2-c2ccccc2CO[C@@H]1CN(C)C(=O)c1cc(Cl)cc(Cl)c1,0.8517 ± 0.003
12,O=C(N[C@@H]1C=C[C@@H](CC(=O)N2CCC(Cc3ccccc3)CC2)O[C@H]1CO)c1cnccn1,0.984 ± 0.033
13,O=C(C[C@H]1C[C@@H]2c3cc(NC(=O)C4CCC4)ccc3O[C@@H]2[C@H](CO)O1)NC1CCCC1,1.1 ± 0.11
14,C[C@@H]1CCCCO[C@@H](CN(C)C(=O)NC2CCCCC2)[C@H](C)CN([C@@H](C)CO)C(=O)c2cc(N(C)C)ccc2O1,1.12 ± 0.13
15,CCS(=O)(=O)N1CCCCN2[C@H](C1)[C@@H](c1ccc(-c3ccc(C(=O)N(C)C)cc3)cc1)[C@@H]2CO,0.982 ± 0.1
16,COCC(=O)N1[C@H](C#N)[C@H](c2ccc(C#CCC3CCCC3)cc2)[C@@H]1CO,1.06 ± 0.089
17,C/C=C/c1ccc2n(c1=O)C[C@H]1N[C@@H]2[C@@H](C(=O)NC2CCCC2)[C@@H]1CO.C/C=C\c1ccc2n(c1=O)C[C@H]1N[C@@H]2[C@@H](C(=O)NC2CCCC2)[C@@H]1CO,1.01 ± 0.11
18,O=C(C1CCCCC1)N1CC(=O)N2[C@H](CO)[C@@H](c3ccc(-c4ccccc4F)cc3)[C@@H]2C1,1.064 ± 0.0081
19,C[C@@H]1CN([C@H](C)CO)C(=O)CCCn2nncc2CO[C@H]1CN(C)C(=O)Nc1ccc2c(c1)OCCO2,0.9785 ± 0.0043
20,COc1ccccc1NC(=O)N1C[C@H]2[C@@H](c3ccccc31)[C@H](CO)N2CC1CCOCC1,1.02 ± 0.062
21,CC(=O)NC[C@H]1[C@H](c2ccc(C3=CCCC3)cc2)[C@@H](CO)N1Cc1cccnc1,1.01 ± 0.089
22,Cc1nn(C)cc1NC(=O)C[C@H]1CC[C@H]2[C@H](COc3ccc(NC(=O)C4CCOCC4)cc3C(=O)N2C)O1,0.978 ± 0.11
